The full ranking holds about 81,000 sequences; the median of “one-hybrid fitness for binding parS DNA” is about -0.17, and the highest 2% start at about 0.51. This is one part of the list.
B1: Caulobacter ParB omega fusion; a variant is named by its letters at X, in order, B8GW30 (parent)
chain: MESVVVGEPGMSEGRRGLGRGLSALLGEVDAAPAQAPGEQLGGSREAPIEILQRNPDQPRRTFREEDLEDLSNSIREKGVLQPILVRPSPDTAGEYQIVAGERAWRAAQRAGLKTVPIMVRELDDLAVLEIGIIENVQRADLNVLEEALSYKVLMEKFERTQENIAQTIGKSXSHVANXMRLLXLPDEVQSYLVSGELTAXHARAIAAAADPVALAKQIIEGGLSVRETEALARKAPNLSAGKSKGGRPPRVKDTDTQALESDLSSVLGLDVSIDHRGSTGTLTITYATLEQLDDLCNRLTRGI

Variants of: B1
Test: one-hybrid fitness for binding parS DNA (scaled: cognate 1, non-cognate 0); higher = stronger binding
Conditions: with parS DNA site
Outline: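 Bacterial one-hybrid selection in E. coli USO rpoZ- hisB- pyrF- with a HIS3 reporter carrying the site 19 bp from the promoter, screening Caulobacter ParB libraries with four specificity codons randomised (NNS). Cells grew 48 hours at 37°C on M9-minus-histidine plus 0.1 mM IPTG and 5 mM 3-AT. Plasmids before and after selection were Illumina-sequenced, three replicate libraries pooled, and variants under 10 reads dropped. Fitness is the log change in variant-to-wild-type read ratio, rescaled to cognate 1, non-cognate 0.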

Variant | one-hybrid fitness for binding parS DNA
NSRL | ≤ 0.2
RKVM | 0.285
TCHR | ≤ 0.2
NTCM | ≤ 0.2
ALHQ | ≤ 0.2
SSPS | ≤ 0.2
DGIT | ≤ 0.2
SAMI | ≤ 0.2
MTGG | ≤ 0.2
NPKT | ≤ 0.2
MMAL | ≤ 0.2
ARNC | ≤ 0.2
INNT | ≤ 0.2
CCSA | ≤ 0.2
SLWI | ≤ 0.2
TTLE | ≤ 0.2
SKYG | ≤ 0.2
PLRQ | ≤ 0.2
PHDL | ≤ 0.2
PKAY | ≤ 0.2
DLLW | ≤ 0.2
PWYS | ≤ 0.2
PLMK | ≤ 0.2
AWPV | ≤ 0.2
CHGG | ≤ 0.2

Variant | one-hybrid fitness for binding parS DNA
MINR | ≤ 0.2
NEEI | ≤ 0.2
NCLA | ≤ 0.2
SCWT | ≤ 0.2
WQLA | ≤ 0.2
QRSW | ≤ 0.2
SQYS | ≤ 0.2
QPKN | ≤ 0.2
YGYN | ≤ 0.2
SQTV | ≤ 0.2
WTHK | ≤ 0.2
WHAK | ≤ 0.2
VTLP | ≤ 0.2
HQNQ | ≤ 0.2
YFEC | ≤ 0.2
YPPR | ≤ 0.2
PRDT | ≤ 0.2
TDDN | ≤ 0.2
LRDG | ≤ 0.2
YLCC | ≤ 0.2
AYLY | ≤ 0.2
WLCL | ≤ 0.2
QMWE | ≤ 0.2
QHTD | ≤ 0.2
PKYY | ≤ 0.2

Variant | one-hybrid fitness for binding parS DNA
LDGS | ≤ 0.2
SRFA | ≤ 0.2
DHGC | ≤ 0.2
PLQE | ≤ 0.2
VPEY | ≤ 0.2
DARC | ≤ 0.2
LRRT | ≤ 0.2
LSHG | ≤ 0.2
YRRV | ≤ 0.2
GYID | ≤ 0.2
CYDG | ≤ 0.2
QNWN | ≤ 0.2
EIPS | ≤ 0.2
WGAF | ≤ 0.2
INDN | ≤ 0.2
RLWK | ≤ 0.2
CSER | ≤ 0.2
IRLG | ≤ 0.2
HSFS | ≤ 0.2
PLPD | ≤ 0.2
PYPH | ≤ 0.2
QKPR | ≤ 0.2
KRIW | ≤ 0.2
GANF | ≤ 0.2
MWAG | ≤ 0.2

Variant | one-hybrid fitness for binding parS DNA
KRCM | ≤ 0.2
FYWG | ≤ 0.2
FCPL | ≤ 0.2
TADH | ≤ 0.2
YGWR | ≤ 0.2
AWAL | ≤ 0.2
YKAS | ≤ 0.2
DHHR | ≤ 0.2
CAGG | ≤ 0.2
WQMV | ≤ 0.2
HGYW | ≤ 0.2
PKRD | ≤ 0.2
SAYG | ≤ 0.2
HVQR | ≤ 0.2
CGLY | ≤ 0.2
AASV | ≤ 0.2
WVMW | ≤ 0.2
HHPM | ≤ 0.2
SHAW | ≤ 0.2
KTNL | ≤ 0.2
TALW | ≤ 0.2
TYGA | ≤ 0.2
